Laboratory results reported in the RNAGym collection of RNA variant scans (doi:10.7554/elife.90254).
The source gives no read counts; variants with many changes may rest on few reads.

B1: LINE1-mini (parent)
chain: GGCAGAGCUCAACACAGCGUGGCAAAGUGGCUGUGGCUAGACUGCC

Variants of: B1
Experiment: self-cleavage, relative activity (ratio to wild type); higher = more cleavage; in vitro, sequencing; the parent is a self-cleaving ribozyme
For G1C G2U G5A A12C, the self-cleavage was 0.02.
For C15A A24U U28G G29U C46G, the self-cleavage was 0.07.
For G2U A4C G5A C8A A16C C18A G35C, the self-cleavage was 0.13.
A16C C18U G21A G30C showed a self-cleavage of 0.02.
Variant C3U A14C A25U U38C has a self-cleavage of 0.08.
A6C G17A U34A C46U gave a self-cleavage of 0.01.
With C13U G19A G27C the self-cleavage was 0.18.
Variant C3U A6C G7C A12U G33U A41U U43G has a self-cleavage of 0.13.
A12G G19U U20C G40A G44C showed a self-cleavage of 0.01.
In the case of A6C C18A G19U G30A C45G, the self-cleavage is reported as 0.07.
For A4U C31A G33U, the self-cleavage was 0.05.
A4C A11C C18G G22A G33A showed a self-cleavage of 0.05.
In the case of G19A G21A G22U C37U A41C, the self-cleavage is reported as 0.01.
With C8A A12U G21U C37A the self-cleavage was 0.04.
Work on A11G A25U U34C C37A C42U yielded a self-cleavage of 0.02.
With G7C C8U A12G U34G the self-cleavage was 0.01.
Work on C8U C13U G21U G30C yielded a self-cleavage of 0.16.
C3A A14C C18A gave a self-cleavage of 0.1.
With G1A C8G C10A G27U C45A the self-cleavage was 0.01.
A4C C18A G35U G40U showed a self-cleavage of 0.01.
Variant G1U C3U G36U has a self-cleavage of 0.24.
Work on C10G A14G A16G C18G U20C A26G G30U yielded a self-cleavage of 0.01.
In the case of C3U A6C G17A A26U C31U, the self-cleavage is reported as 0.27.
For U9C U20A G40U, the self-cleavage was 0.
Work on C8G G21U G36C yielded a self-cleavage of 0.28.
C18U C31G G44U gave a self-cleavage of 0.02.
With A14G C15G G22A G36U U38C the self-cleavage was 0.01.
With G1U A16U G17A G30A A39C the self-cleavage was 0.
Work on A6U G30A A39C yielded a self-cleavage of 0.05.
U9C C10G G19A C42G showed a self-cleavage of 0.01.
In the case of A4U U20A G22C, the self-cleavage is reported as 0.24.
Variant A14C G30C C31G G36C has a self-cleavage of 0.1.
Variant C10G A14C G17U G19U has a self-cleavage of 0.01.
For G17U C23G U28A, the self-cleavage was 0.11.
With C15U G21C A25G C31U G36C the self-cleavage was 0.01.
Variant A6G A14G G19U has a self-cleavage of 0.06.
A6U G40U U43G showed a self-cleavage of 0.02.
G7A G40U C45A gave a self-cleavage of 0.26.
Work on G21U U32G G40U yielded a self-cleavage of 0.06.
With G1A A39G C45A the self-cleavage was 0.04.
Work on U34C A39U C46U yielded a self-cleavage of 0.18.
Variant A11G G19C G22U A26G C31A has a self-cleavage of 0.02.
C3A G27A G40A C42G showed a self-cleavage of 0.1.
For G17U C37U C46A, the self-cleavage was 0.2.
G7A A11C G19U G33A G35C U43A showed a self-cleavage of 0.06.
For G7A A14U G27A, the self-cleavage was 0.21.
For G1U A12C G17U A26C G30C G40C, the self-cleavage was 0.
With C18G G19C U34A the self-cleavage was 0.1.
With C3A C15A G19U G35C the self-cleavage was 0.02.
For C23U G33A G36A C45U, the self-cleavage was 0.03.
C3A A12C U38C showed a self-cleavage of 0.08.
In the case of U28C G30A U32A G40U C45A, the self-cleavage is reported as 0.07.
Variant G2U C15G G22U has a self-cleavage of 0.03.
Variant C8A G22C U28C has a self-cleavage of 0.1.
Variant G1A C10A A24G A41C has a self-cleavage of 0.03.
C3A A4G C46U showed a self-cleavage of 0.12.
G1A G19U G33C gave a self-cleavage of 0.06.
For C23U C31G G40C, the self-cleavage was 0.02.
For G5C G33A C37A A41G, the self-cleavage was 0.02.
With C3U G17U A25C the self-cleavage was 0.04.
In the case of G5A C13U G29A, the self-cleavage is reported as 0.16.
Work on G30A U32C U34G A39G C46U yielded a self-cleavage of 0.05.
For C3U U20C U32C, the self-cleavage was 0.08.
With G5C C15U C23U U28C the self-cleavage was 0.02.
With U20G A26U A39U the self-cleavage was 0.2.
In the case of C23A G27C U32G G35A, the self-cleavage is reported as 0.04.
In the case of G22U A24C C46U, the self-cleavage is reported as 0.31.
For G1U G2C G40A, the self-cleavage was 0.01.
Variant G1A G5A C23A U28A has a self-cleavage of 0.07.
Work on A6U A12U C13A C15U C23U yielded a self-cleavage of 0.03.
In the case of G17U A25C U28C, the self-cleavage is reported as 0.32.
In the case of G17A A25G A26G C37A, the self-cleavage is reported as 0.04.
Work on G5A C18U G22U C45A yielded a self-cleavage of 0.03.
For C13U U28A A41U, the self-cleavage was 0.01.
For A12U C15A G29U, the self-cleavage was 0.03.
Variant G1A A12G A16G G21A has a self-cleavage of 0.05.
C3G A14C G40C C46G showed a self-cleavage of 0.02.
For C10A G35U C45A, the self-cleavage was 0.01.
G33C G35A U38G gave a self-cleavage of 0.04.
With C23U A26U G33A A41C G44C C46A the self-cleavage was 0.03.
With C10G G33U G36C U38C C46U the self-cleavage was 0.01.
Work on A11C G36A C37U yielded a self-cleavage of 0.03.
In the case of C3A G21A G36A A39U G40U U43G, the self-cleavage is reported as 1.2.
Variant A6G C31U C45G has a self-cleavage of 0.01.
In the case of G17C A25U G30C G35A C37U, the self-cleavage is reported as 0.05.
U20A U38G C46A gave a self-cleavage of 0.01.
G1U U32A C46G gave a self-cleavage of 0.06.
In the case of G21A A25U G33A, the self-cleavage is reported as 0.12.
For A12G A16U C18A G33U, the self-cleavage was 0.04.
Work on A4G C10G A11U A12C C23A C31U C42U yielded a self-cleavage of 0.02.
C13A U34G C37U A39C C46G gave a self-cleavage of 0.02.
Work on G7A A14C C18A G36C yielded a self-cleavage of 0.02.
Work on G29A U34G U43A yielded a self-cleavage of 0.37.
C8U U28C C37G A41U gave a self-cleavage of 0.
With G17U C37A C45G the self-cleavage was 0.03.
With A11U A16G G29U G30U the self-cleavage was 0.03.
With A12G G22A C45A the self-cleavage was 0.
For C13G A14U G17C, the self-cleavage was 0.02.
U20C C23U A25C C45U showed a self-cleavage of 0.26.
In the case of G5U A16U U34G G40U, the self-cleavage is reported as 0.01.
With G2U G7U U20G the self-cleavage was 0.02.
For U9A A11U C13U A24C U28A, the self-cleavage was 0.07.
Variant U9G G17U G22A G29A C46G has a self-cleavage of 0.09.
In the case of A4C C23A U43A, the self-cleavage is reported as 0.02.
C10A A11U G21A C42U showed a self-cleavage of 0.03.
For G2C G36U U43G, the self-cleavage was 0.
Variant G5A C8U C10U C15A G21U U34C has a self-cleavage of 0.04.
For C8A A14G G30U C31U C46G, the self-cleavage was 0.02.
A4C C15G G19C C23G showed a self-cleavage of 0.04.
U20C G30C C45G showed a self-cleavage of 0.2.
With C10G A41U G44U the self-cleavage was 0.05.
C10A G21C C42U C46A gave a self-cleavage of 0.
A14U G22U A25G showed a self-cleavage of 0.
G2A C10G A11G C15A G17A A26U C37G U38A gave a self-cleavage of 0.01.
C8A A16G C23A C42G gave a self-cleavage of 0.17.
For U20C A26C G40C, the self-cleavage was 0.02.
G19U U38A A39U gave a self-cleavage of 0.84.
Work on A4G C8G G17A C18A yielded a self-cleavage of 0.06.
Work on G1U G2C A4C U9A G17C G19C yielded a self-cleavage of 0.25.
With A6U G17A A24C U32A C42G the self-cleavage was 0.01.
In the case of G22A G36U A41C, the self-cleavage is reported as 0.01.
Work on C13U G27A C46G yielded a self-cleavage of 0.13.
Work on A6C A14U C18A G22U C31U U43G G44A C45U yielded a self-cleavage of 0.
A26U G27A U28C C37A showed a self-cleavage of 0.15.
G22U G27A U28A C31A C45A showed a self-cleavage of 0.13.
For G19U C23G A26U C37A C46U, the self-cleavage was 0.02.
U9G A16U U28A U32G gave a self-cleavage of 0.05.
For C15A G22C A41C, the self-cleavage was 0.03.
Variant G5U A14U G35A G36A has a self-cleavage of 0.15.
Variant A6C U9G G35A G36U G44A has a self-cleavage of 0.01.
C13G C18G C31G G33U gave a self-cleavage of 0.01.
A4U A12G A16C G21C showed a self-cleavage of 0.04.
For C18A A25G U32C, the self-cleavage was 0.07.
C18U C23U C42A showed a self-cleavage of 0.06.
Work on C3G C18A G22A U43C yielded a self-cleavage of 0.
Work on C3G C10U C18A A41U yielded a self-cleavage of 0.02.
C3A C18A A41C showed a self-cleavage of 0.11.
Work on G2C A11C G22U U34A G44C yielded a self-cleavage of 0.01.
U9A C15A C42G showed a self-cleavage of 0.01.
For G5U C37A G44A, the self-cleavage was 0.06.
For C8U G19A G44C, the self-cleavage was 0.06.
Variant G1U A16G G17C A41G has a self-cleavage of 0.03.
C13A A16C G17C G36U showed a self-cleavage of 0.07.
Variant G5U G17C G22A G29C has a self-cleavage of 0.03.
Work on G2A G29U G40C C45A yielded a self-cleavage of 0.1.
In the case of G7U C8G G35U, the self-cleavage is reported as 0.31.
In the case of C10G G27C C31A, the self-cleavage is reported as 0.02.
C10A G19U C23G G27U gave a self-cleavage of 0.02.
G7U C15G C18A showed a self-cleavage of 0.03.
With G7A A16G C37U the self-cleavage was 0.11.
In the case of G17U G21A G22U, the self-cleavage is reported as 0.84.
Work on C18G G27A G35U C37A A41G yielded a self-cleavage of 0.01.
For G2U A4C C13G G22C G30U, the self-cleavage was 0.08.
Variant A12G A26C G40U C45A has a self-cleavage of 0.04.
G17A G36C G40C gave a self-cleavage of 0.04.
Variant U9C C13U U20C has a self-cleavage of 0.02.
A6U C8U G21U C37G gave a self-cleavage of 0.02.
For G22U U28C A41U G44U, the self-cleavage was 0.05.
For G1C C8U G29A U34A G40U A41C, the self-cleavage was 0.
With A14C C23U U43A the self-cleavage was 0.04.
Variant G35C G36A G40A has a self-cleavage of 0.08.
Work on C15U A24U A25G G36A yielded a self-cleavage of 0.04.
Variant A4G G5U U9C A24C C31A G33U has a self-cleavage of 0.02.
In the case of C8G C10U G22U C23A, the self-cleavage is reported as 0.01.
Work on G2C C3U G29C A41G yielded a self-cleavage of 0.02.
Work on C13G C31U G33A yielded a self-cleavage of 0.09.
With G1A A39U C42A the self-cleavage was 0.08.
